Measured values from PMC9911399, “Two distinct binding modes provide the RNA-binding protein RbFox with extraordinary sequence specificity”.
Positions count from the first letter of the chain named. The list shows a part of the results.

B1: AUUUGAU (DNA:RNA)
RNA: GGGAGACCGGAAUUCAGAUUGUCCAUUUGAUUUAAAUCCCGUCGUAGCCACCA
DNA 1: CAATCTGAATTCCGGTCTCCC
DNA 2: TGGTGGCTACGACGGGATT
B2: AAAUCGG (DNA:RNA)
RNA: B1 RNA with U26A, U27A, G29C, A30G, U31G
DNA 1: CAATCTGAATTCCGGTCTCCC
DNA 2: TGGTGGCTACGACGGGATT
B3: CGGUUGU (DNA:RNA)
RNA: B1 RNA with A25C, U26G, U27G, G29U, A30G
DNA 1: CAATCTGAATTCCGGTCTCCC
DNA 2: TGGTGGCTACGACGGGATT
B4: UAUCGCG (DNA:RNA)
RNA: B1 RNA with A25U, U26A, U28C, A30C, U31G
DNA 1: CAATCTGAATTCCGGTCTCCC
DNA 2: TGGTGGCTACGACGGGATT
B5: AACAUUA (DNA:RNA)
RNA: B1 RNA with U26A, U27C, U28A, G29U, A30U, U31A
DNA 1: CAATCTGAATTCCGGTCTCCC
DNA 2: TGGTGGCTACGACGGGATT
B6: AGCUUCU (DNA:RNA)
RNA: B1 RNA with U26G, U27C, G29U, A30C
DNA 1: CAATCTGAATTCCGGTCTCCC
DNA 2: TGGTGGCTACGACGGGATT
B7: CGACUCG (DNA:RNA)
RNA: GGGAGACCGGAAUUCAGAUUGUCCCGACUCGUUAAAUCCCGUCGUAGCCACCA
DNA 1: CAATCTGAATTCCGGTCTCCC
DNA 2: TGGTGGCTACGACGGGATT
B8: CUCGCCC (DNA:RNA)
RNA: B7 RNA with G26U, A27C, C28G, U29C, G31C
DNA 1: CAATCTGAATTCCGGTCTCCC
DNA 2: TGGTGGCTACGACGGGATT
B9: UCUGCUC (DNA:RNA)
RNA: B1 RNA with A25U, U26C, U28G, G29C, A30U, U31C
DNA 1: CAATCTGAATTCCGGTCTCCC
DNA 2: TGGTGGCTACGACGGGATT
B10: UUCGAAG (DNA:RNA)
RNA: B1 RNA with A25U, U27C, U28G, G29A, U31G
DNA 1: CAATCTGAATTCCGGTCTCCC
DNA 2: TGGTGGCTACGACGGGATT
B11: AAGACGC (DNA:RNA)
RNA: B1 RNA with U26A, U27G, U28A, G29C, A30G, U31C
DNA 1: CAATCTGAATTCCGGTCTCCC
DNA 2: TGGTGGCTACGACGGGATT
B12: AUGUGCA (DNA:RNA)
RNA: B1 RNA with U27G, A30C, U31A
DNA 1: CAATCTGAATTCCGGTCTCCC
DNA 2: TGGTGGCTACGACGGGATT
B13: UAAAUCC (DNA:RNA)
RNA: B7 RNA with C25U, G26A, C28A, G31C
DNA 1: CAATCTGAATTCCGGTCTCCC
DNA 2: TGGTGGCTACGACGGGATT
B14: CACCCCU (DNA:RNA)
RNA: B7 RNA with G26A, A27C, U29C, G31U
DNA 1: CAATCTGAATTCCGGTCTCCC
DNA 2: TGGTGGCTACGACGGGATT
B15: CGACACA (DNA:RNA)
RNA: B7 RNA with U29A, G31A
DNA 1: CAATCTGAATTCCGGTCTCCC
DNA 2: TGGTGGCTACGACGGGATT
B16: UUGUAUG (DNA:RNA)
RNA: B1 RNA with A25U, U27G, G29A, A30U, U31G
DNA 1: CAATCTGAATTCCGGTCTCCC
DNA 2: TGGTGGCTACGACGGGATT
B17: GUUGCCC (DNA:RNA)
RNA: B1 RNA with A25G, U28G, G29C, A30C, U31C
DNA 1: CAATCTGAATTCCGGTCTCCC
DNA 2: TGGTGGCTACGACGGGATT
B18: CUAUAAC (DNA:RNA)
RNA: B1 RNA with A25C, U27A, G29A, U31C
DNA 1: CAATCTGAATTCCGGTCTCCC
DNA 2: TGGTGGCTACGACGGGATT
B19: UGGGCAU (DNA:RNA)
RNA: B1 RNA with A25U, U26G, U27G, U28G, G29C
DNA 1: CAATCTGAATTCCGGTCTCCC
DNA 2: TGGTGGCTACGACGGGATT
B20: UGAACGG (DNA:RNA)
RNA: B7 RNA with C25U, C28A, U29C, C30G
DNA 1: CAATCTGAATTCCGGTCTCCC
DNA 2: TGGTGGCTACGACGGGATT

molecular target: T1, RBFOX1 RRM (Homo sapiens, UniProt Q9NWB1 109-208); test: EMSA; HiTS-Eq, 1 nM pool, 10 min; buffer printed only for the single-RNA assays: 10 mM Tris pH 7.5, 150 mM NaCl, 3.4 mM EDTA, 0.001% NP-40, 30 C; settings: tags: His6 N-terminal (pET28a); label: 5' 32P
T1 sequence: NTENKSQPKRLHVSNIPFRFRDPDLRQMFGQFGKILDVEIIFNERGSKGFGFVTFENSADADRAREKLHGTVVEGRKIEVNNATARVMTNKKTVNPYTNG
Summary of the method: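 A pool of RNA with 7 randomized nucleotides, 5′-radiolabelled and with DNA-annealed flanks, was equilibrated at 1 nM for 10 min in 50 µL with purified RbFox RRM, wild type or mutant, across increasing protein concentrations. Free RNA was separated by 8% native PAGE, excised, reverse-transcribed, barcoded by PCR and sequenced. Relative association constants were obtained from read-count changes of each RNA species versus the control reaction and normalised to the cognate motif.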

| Binder | binding signal |
| --- | --- |
| B1 | 0.0129 KA relative to UGCAUGU |
| B2 | 0.00348 KA relative to UGCAUGU |
| B3 | 0.0279 KA relative to UGCAUGU |
| B4 | 0.0182 KA relative to UGCAUGU |
| B5 | 0.0011 KA relative to UGCAUGU |
| B6 | 0.00935 KA relative to UGCAUGU |
| B7 | 0.0111 KA relative to UGCAUGU |
| B8 | 0.00659 KA relative to UGCAUGU |
| B9 | 0.0126 KA relative to UGCAUGU |
| B10 | 0.0176 KA relative to UGCAUGU |
| B11 | 0.00195 KA relative to UGCAUGU |
| B12 | 0.0238 KA relative to UGCAUGU |
| B13 | 0.00295 KA relative to UGCAUGU |
| B14 | 0.00104 KA relative to UGCAUGU |
| B15 | 0.000662 KA relative to UGCAUGU |
| B16 | 0.0226 KA relative to UGCAUGU |
| B17 | 0.0151 KA relative to UGCAUGU |
| B18 | 0.00159 KA relative to UGCAUGU |
| B19 | 0.0311 KA relative to UGCAUGU |
| B20 | 0.0179 KA relative to UGCAUGU |
